For 81 molecules, TGI and GI50 results are on record in PubChem BioAssay (NCI).

The test system of this assay is NCI-H322M lung. Briefly: growth of human tumour cells (NCI), 48 h.

Where “and” joins values, the source holds several entries; their conditions need not be identical. Equal entries are not always repeated.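 These data come from cells grown in 96-well plates and exposed to compound for 48 hours at five concentrations. The concentration for 50% growth inhibition is given as GI50. TGI denotes the concentration required for complete inhibition of growth.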

Molecule `CCN(CC)CCNc1ccc2nnn3c4ccc(OC)cc4c(=O)c1c23` gave a TGI of 21.1 µM.
As for `COc1ccc(N2C(C)=C(C#N)C34C(=O)N(c5ccccc5)C(=O)C3=C(O)C=CC24O)cc1` (centres undefined), the GI50 was 18 µM and the TGI came out at 49.5 µM.
For `CCCCN1CCN(c2ccc3nc(-c4ccc5nc(-c6ccc(C(F)(F)F)cc6)[nH]c5c4)[nH]c3c2)CC1`, the GI50 was 1.53 µM and the TGI is 2.91 µM.
Take `O=C1C(c2c(O)[nH]c3ccc(S(=O)(=O)O)cc23)=Nc2ccccc21`: the TGI was greater than 100 µM.
On to `c1ccc2c(c1)[nH]c1nc3cc(-c4ccc5nc6c(nc5c4)[nH]c4ccccc46)ccc3nc12`, for which the TGI was greater than 100 µM.
Turning to `Nc1cc2cccc[n+]2c2cc(Cl)ccc12`, the GI50 was 21.9 µM.
With `Cc1ccc(C(=O)O/N=C2/CCC/C2=C\c2ccccc2)cc1`, the TGI is greater than 100 µM.
For the molecule `CCCCCn1c(=N)n(CC(O)COc2cccc(C)c2)c2ccccc21` (centres undefined), the GI50 is 8.48 µM and the TGI is 22.1 µM.
`COc1cc(/C=C/C(=O)O)ccc1C(=O)O/C=C/c1ccccc1` gave a TGI greater than 100 µM.
Take `O=CNc1c(Cl)cc2c(c1Cl)Cc1cc([N+](=O)[O-])ccc1-2`: the GI50 was 4.72 µM and the TGI came out at 37.6 µM.
For `CC(C)(C)C[C@H]1NC(C(=O)NCC[C@H](O)CO)[C@H](c2cccc(Cl)c2)[C@@]12C(=O)Nc1cc(Cl)c(F)cc12` (some centres undefined), in that order: 16.5 µM and 33.6 µM.
Take `N#Cc1nc(-c2cc([N+](=O)[O-])cc([N+](=O)[O-])c2)oc1N`: the TGI was greater than 10 µM.
In turn, `O=C(O)[C@@H]1C[C@@H](O)CN1C(=O)OCc1ccccc1` had a TGI greater than 100 µM.
In the case of `O=C(CP(=O)(O)O)c1cccs1`, the TGI is greater than 100 µM.
On the same count and under the same terms, in the case of `COc1ccc(Nc2nc3ccc(C(F)(F)F)cc3nc2C(=O)O)cc1OC` it was greater than 100 µM; in that of `CCOC(=O)C1=C(C(C)=O)CSC(c2ccccc2)=N1`, greater than 100 µM.
`C[C@@H](C(=O)Nc1ccc(Cl)cc1)C1CCC(c2ccnc3ccc(F)cc23)CC1` (some centres undefined): the GI50 is 34.9 µM and the TGI was greater than 100 µM.
The molecule `CCCCOC(C)(C)/C=C/C(O)[C@](C)(O)[C@H]1[C@H](O)C[C@@]2(C)[C@@H]3CCc4c(cc(OC5OC(CO)C(O)C(O)C5O)c(O)c4C)C3(C)C(=O)C[C@]12C` (some centres undefined) gave a TGI greater than 100 µM.
Regarding `C=C1C(O)C2(O)OCC34C(CC5C(C)=CC(=O)C(O)C5(C)C23)OC(=O)C(OC(=O)C/C=C(\C)CCCCC)C14` (centres undefined), the GI50 is 0.0101 µM and 0.05 µM and 0.0125 µM.
Consider `CCSC1=CC(=O)c2nc3ccccc3c3ccnc1c23`, for which the TGI worked out at 25.3 µM.
With `Cc1cccc(NC(=O)CC(=O)N2N=C(N(CCC#N)c3ccc(Cl)cc3)CC2c2ccccc2)c1` (centres undefined), the TGI was greater than 100 µM.
For `COc1c(CCC[P+](c2ccccc2)(c2ccccc2)c2ccccc2)cc2c(c1OC)OCO2`, the GI50 was 3.17 µM and the TGI came out at 31.5 µM.
In turn, `CC1=NOC(=O)/C1=C/c1ccccc1O` returned a TGI greater than 100 µM.
On to `Cc1sc(C(=O)Nc2cc(C(=O)NCCCN(C)C)n(C)c2)cc1NC(=O)CCCN1C(=O)c2cccc3cccc(c23)C1=O`, for which the GI50 was greater than 100 µM and the TGI was greater than 100 µM.
In the case of `CN(CCCN)CCCNc1nc2ccccc2c2[nH]c3ccccc3c12`, the GI50 is 0.116 µM and the TGI came out at 0.696 µM.
`c1cc(-c2cn3ccsc3n2)ccn1` showed a TGI greater than 100 µM.
Still for that read-out and setting: in the case of `CN(C)NC(=S)Nc1ccccc1Br` it was greater than 100 µM.
Molecule `CC(=O)NC(CCCNCc1ccccc1)C(=O)NCc1ccccc1` (centres undefined) displayed a TGI greater than 100 µM.
As for `COc1cccc(/C=C/C(=O)c2cccc(Nc3nc(Nc4ccccc4)nc(Nc4ccccc4)n3)c2)c1`, the GI50 was greater than 40.9 µM and the TGI is greater than 100 µM.
For `CCN(Cc1ccc(F)c(F)c1)c1ccc(CO)c(Cl)c1`, the GI50 is 11.4 µM and the TGI is 31.6 µM.
Take `C=C1[C@@H](O)C[C@@]23CC[C@@H]4[C@@]5(C)CC[C@@H](OC(C)=O)C(C)(C)[C@@H]5C[C@@H](OC5OC(COC(C)=O)C(O)C(O)C5O)[C@@]4(C)C2=CC[C@H]3[C@H]1C` (some centres undefined): the TGI was determined as 25.4 µM.
Same read-out and setting: as for `CCOP(=O)(OCC)C1C(CO)OC(n2ccc(=O)[nH]c2=O)C1O` (centres undefined), the figure is greater than 100 µM; as for `CC1CCCCc2nc3c(c(=O)n21)CCCC3` (centres undefined), greater than 100 µM.
`COc1ccc(-c2cc(=O)c3cc4c(cc3[nH]2)OCO4)c(OC)c1OC` showed a TGI greater than 100 µM.
In turn, `CN(C)/C=C/c1nnc([N+](=O)[O-])s1` had a TGI of 57.8 µM.
On to `C[C@H](Nc1ncnc2nc[nH]c12)c1cc2cccc(Cl)c2c(=O)n1-c1ccccc1`, for which the GI50 was 8.5 µM and the TGI was 58.2 µM.
For `CN(C)c1ccc(-c2c(C#N)c(S)n(NS(=O)(=O)c3ccccc3)c(=O)c2C#N)cc1`, the TGI was greater than 100 µM.
In the case of `CC(=O)OC(C)c1cc2c(s1)C(=O)c1sccc1C2=O` (centres undefined), the TGI is 3.64 µM.
Turning to `O=C([O-])c1ccccc1Nc1ccccn1.O=C([O-])c1ccccc1Nc1ccccn1.[Ni+2]`, the GI50 was greater than 100 µM and the TGI is greater than 100 µM.
In the case of `O=c1cc(/C=C/c2ccc(O)c(O)c2)oc(/C=C/c2ccc(O)c(O)c2)c1`, the TGI came to 15 µM.
Same read-out and setting: as for `C=C(C)CCC(=O)[C@](C)(O)[C@H]1[C@H](O)C[C@@]2(C)[C@@H]3CCc4c(cc(OC5OC(CO)C(O)C(O)C5O)c(O)c4C)C3(C)C(=O)C[C@]12C` (some centres undefined), the figure is greater than 100 µM; as for `NC(CSCc1ccccc1)C(=O)O` (centres undefined), greater than 100 µM.
Regarding `Nc1c2ccccc2nc2c1ccc1ncccc12`, the TGI was greater than 100 µM.
Take `Cc1ccncc1.[O]=[Ge].[O]=[Ge].[O]=[Ge].[O]=[Ge].[O]=[Ge].[O]=[Ge][OH].[O]=[Ge][OH]`: the GI50 was greater than 100 µM and the TGI was greater than 100 µM.
For the molecule `Nc1nn2c(C(Br)Br)cc(C(Br)Br)nc2c1[N+](=O)[O-]`, the TGI stood at 11.2 µM.
Regarding `COc1ccc(-c2ccc(/C=N/n3c(COc4ccc(Cl)cc4Cl)n[nH]c3=S)o2)c([N+](=O)[O-])c1`, the GI50 is 18 µM and the TGI is 41.7 µM.
The molecule `Cc1ccc(S(=O)(=O)N2CCSCCSCCSCCSCC2)cc1` showed a TGI greater than 100 µM.
As to `Cc1ccc2c(ccc3c[n+]4c5ccccc5ccc4n32)c1`, the GI50 is 2.35 µM and the TGI is 9.82 µM.
With `CNC(=O)OCc1nc(SC2CCCCO2)n(C)c1COC(=O)NC` (centres undefined), the TGI is greater than 100 µM.
Still for that read-out and setting: in the case of `C=C1C(=O)O[C@H]2[C@H]1[C@H](OC(=O)/C(C)=C\C)CC(=C)[C@@H]1[C@H](O)[C@H]3O[C@@]3(C)[C@@]12O` it was greater than 100 µM.
In the case of `COc1ccc2nc3cc([N+](=O)[O-])ccc3c(NCCCCCN(C)C)c2c1`, the GI50 is 0.201 µM and the TGI turned out to be 10.2 µM.
Take `COCCN1C2=CCCCC2=Nc2c1nc(N)[nH]c2=O`: the TGI was greater than 100 µM.
Regarding `COC(=O)CCC(NC(=S)N/N=C(\C)c1nccs1)C(=O)OC` (centres undefined), the TGI is greater than 100 µM.
`O=C(NC(Cc1c[nH]c2ccccc12)C(=O)O)/C(=C/c1ccccc1O)NC(=O)c1ccccc1` (centres undefined) displayed a TGI greater than 100 µM.
As for `COC(=O)[C@@H](C)C[C@H](Cc1ccccc1)NC(=O)c1nc([C@@H](C[C@H](C(C)C)N(C)C(=O)[C@@H](NC(=O)[C@H]2CCCCN2C)C(C)C)OC(C)=O)sc1C`, the GI50 was 0.00232 µM and the TGI is greater than 16.7 µM.
With `O=C1OC(=O)C(c2c[nH]c3ccccc23)=C1c1c[nH]c2ccccc12`, the GI50 is greater than 25 µM and the TGI is greater than 25 µM.
In turn, `OC[C@@H](O)[C@H]1NC[C@@H](O)[C@H]1O` registered a TGI greater than 100 µM.
Molecule `COC(=O)NN(C(=O)OC)c1c(-c2ccccc2)nc(SC)n1N` came in with a TGI greater than 100 µM.
The same measure, in the same setting: in the case of `COc1ccc(CC(CO)NC(=O)OCc2ccccc2)cc1Oc1ccc(CC(CO)NC(=O)OCc2ccccc2)cc1` (centres undefined) it was 47.1 µM.
In turn, `N#Cc1c(-c2ccccc2)/c(=C\Nc2ccc(Cl)cc2)c(=O)n2c1nc1ccccc12` showed a TGI greater than 100 µM.
Turning to `COC(=O)[C@H](Cc1cn(C)cn1)NC(=O)[C@H](Cc1c[nH]c2ccccc12)NC(=O)Nc1cc(C(F)(F)F)cc(C(F)(F)F)c1`, the GI50 is greater than 10 µM and the TGI is greater than 10 µM.
Molecule `CSC1CC2C(CC1(C)O)C2(C)C` (centres undefined) displayed a TGI greater than 100 µM.
The molecule `COC(=O)CCC1CCc2c(OC)ccc(O)c2C1=O` (centres undefined) yielded a TGI greater than 100 µM.
For the molecule `O=C(c1ccccc1)C1N=NCC1c1ccc([N+](=O)[O-])cc1` (centres undefined), the TGI is greater than 100 µM.
As to `CCOC(=O)C1=C(C)N(Cc2ccccc2)C(C)=C(C(=O)OCC)C1c1ccccc1O`, the TGI was greater than 100 µM.
`CN1CCN(CCc2cccc(C(=O)c3cnn(-c4ccc(F)cc4)c3N)c2)CC1`: the GI50 was greater than 25 µM and the TGI is greater than 25 µM.
In turn, `CCN(CC)CCn1ccc(=O)c2cc3c(=O)ccn(CCN(CC)CC)c3c(C)c21` gave a TGI of 17.1 µM.
For `C/C(=N/NC(N)=S)c1ccc2ccccc2c1`, the TGI was greater than 100 µM.
With `Cc1ccccc1OC(C)C(=O)NN1C(=O)CC(=O)N(c2ccc(Cl)cc2)C1=S` (centres undefined), the TGI is greater than 100 µM.
In turn, `CC(C)(C)N=c1n(C(C)(C)C)oc(=O)n1C(C)(C)C` displayed a TGI greater than 100 µM.
With `O=c1c2c([nH]c3cc4c(cc13)OCO4)-c1ccccc1CC2`, the TGI was greater than 100 µM.
As to `CC(C)(C)NC(=O)[C@H]1CC[C@H]2[C@@H]3CC=C4NC(=O)CC[C@]4(C)[C@H]3CC[C@]12C`, the TGI is greater than 100 µM.
Regarding `CCN(CC)c1ccc(C(=C2C=CC(=[N+](CC)Cc3cccc(S(=O)(=O)O)c3)C=C2)c2ccc(N(CC)Cc3cccc(S(=O)(=O)O)c3)cc2)cc1`, the GI50 was 10.4 µM and the TGI is greater than 100 µM.
Molecule `COc1ccc2c(c1)C(O)(C(F)(F)F)c1cc(C(=O)C(F)(F)F)c3ccccc3c1N2` (centres undefined) displayed a TGI of 24.6 µM.
As for `CN(C)S(=O)(=O)c1ccc(NC(=O)COC(=O)c2ccc(S(=O)(=O)N3CCCCC3)cc2)cc1`, the GI50 is greater than 100 µM and the TGI was greater than 100 µM.
As for `CC(C)(C)C1=Cc2cc3cc(C(C)(C)C)[nH]c(=O)c3cc2S(=O)(=O)N1`, the TGI was greater than 100 µM.
Regarding `COc1cc(C2c3cc4c(cc3OC(N3CCCC3)C2C)OCO4)cc(OC)c1OC` (centres undefined), the TGI came to 9.79 µM.
Molecule `Cc1ccc(/C=C2\CN(C(=O)OC(C)(C)C)C/C(=C\c3ccc(C)cc3)C2=O)cc1` returned a TGI greater than 100 µM.
`O=[N+]([O-])C(=C(N1CCCCC1)N1CCCCC1)/C(Cl)=C(\Cl)Br` yielded a TGI of 81.4 µM.
`CC1(C)SC2C(NC(=O)C(N)c3ccccc3)C(=O)N2C1C(=O)O` (centres undefined) came in with a TGI greater than 100 µM.
In the case of `COCOc1ccc(OC)cc1`, the TGI is greater than 100 µM.
